# Results published in PMC4336329 (PLoS ONE, 2015).
# Among all 310,000 compounds or so, about 2,200 (0.71%) showed an effect of 50% or more. Effects have a minus sign here. Some of the results follow.
# Biological target: human ether-à-go-go-related gene (hERG) potassium channel (human, UniProt Q12809)
# Assay: primary screen, population patch clamp on CHO cells stably expressing hERG
# Chain of human ether-à-go-go-related gene (hERG) potassium channel (Q12809 whole entry, looked up): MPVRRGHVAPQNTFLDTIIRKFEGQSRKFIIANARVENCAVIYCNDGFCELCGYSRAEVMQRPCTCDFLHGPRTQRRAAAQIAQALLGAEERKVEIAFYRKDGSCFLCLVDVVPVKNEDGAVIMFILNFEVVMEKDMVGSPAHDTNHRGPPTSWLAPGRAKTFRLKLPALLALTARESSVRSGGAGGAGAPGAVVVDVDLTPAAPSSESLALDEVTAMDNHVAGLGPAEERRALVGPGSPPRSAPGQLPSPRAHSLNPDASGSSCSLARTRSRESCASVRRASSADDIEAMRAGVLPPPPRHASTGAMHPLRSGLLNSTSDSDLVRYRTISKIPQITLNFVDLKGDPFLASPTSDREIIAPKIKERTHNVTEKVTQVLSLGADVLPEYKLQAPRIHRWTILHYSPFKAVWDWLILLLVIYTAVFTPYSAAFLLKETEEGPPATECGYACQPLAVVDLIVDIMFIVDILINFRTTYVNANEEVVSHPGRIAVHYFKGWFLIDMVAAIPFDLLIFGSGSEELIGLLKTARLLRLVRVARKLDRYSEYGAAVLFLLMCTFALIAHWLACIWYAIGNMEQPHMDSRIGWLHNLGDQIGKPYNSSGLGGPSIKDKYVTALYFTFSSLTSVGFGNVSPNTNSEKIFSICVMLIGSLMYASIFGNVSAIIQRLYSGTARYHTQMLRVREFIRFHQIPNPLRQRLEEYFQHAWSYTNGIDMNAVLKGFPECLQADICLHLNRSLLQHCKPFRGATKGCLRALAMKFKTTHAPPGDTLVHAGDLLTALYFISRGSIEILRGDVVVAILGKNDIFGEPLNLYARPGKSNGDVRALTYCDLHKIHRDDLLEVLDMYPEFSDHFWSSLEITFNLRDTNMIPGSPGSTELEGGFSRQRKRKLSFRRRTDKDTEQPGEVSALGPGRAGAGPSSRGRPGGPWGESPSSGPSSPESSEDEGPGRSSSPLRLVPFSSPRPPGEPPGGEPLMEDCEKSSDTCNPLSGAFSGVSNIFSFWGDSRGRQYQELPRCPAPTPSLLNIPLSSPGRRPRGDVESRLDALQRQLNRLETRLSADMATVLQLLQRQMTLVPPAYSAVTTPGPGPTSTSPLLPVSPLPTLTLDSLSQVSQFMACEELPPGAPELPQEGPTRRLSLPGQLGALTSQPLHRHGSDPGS
row,SMILES,"hERG current change (%, negative = inhibition) at 1uM [%]"
1,CCCCn1c(N)c(N(CCC(C)C)C(=O)C2CCCO2)c(=O)[nH]c1=O (centres unmarked),12.8
2,Cc1c(C(=O)N2CCCCC2)c(S(=O)(=O)Nc2ccc(F)cc2F)c(C)n1C,9.18
3,COc1ccc(-n2c(C)cc(C(=O)CCl)c2C)cc1,11.6
4,CCCCn1c(N)c(N(C)C(=O)c2ccc(OCC3CCCO3)cc2)c(=O)[nH]c1=O (centres unmarked),12.9
5,Fc1ccc(-c2nn3c(C4COc5ccccc5O4)nnc3s2)cc1 (centres unmarked),6.47
6,COc1c(Cl)ccc(Cl)c1C(=O)NCc1ccco1,1.97
7,CCOc1ccc(NC(=S)NNC(=O)c2ccc(Br)cc2)cc1,12.1
8,O=C(CN1CCN(C(=O)c2cncn2-c2ccc(F)cc2)CC1)Nc1ccccc1C(F)(F)F,-68.3
9,O=C(NCCCCc1ccccc1)C1CCCC1,8.16
10,O=C(CN(Cc1ccccc1)S(=O)(=O)c1ccc2c(c1)OCCO2)N/N=C/c1cccc(Br)c1,-8.39
11,COc1cc(CN2CCN(c3ccc(C)cc3)CC2)cc([N+](=O)[O-])c1O,3.29
12,Cc1cc(C)cc(N2CC(O)Cn3c2nc2c3c(=O)[nH]c(=O)n2C)c1 (centres unmarked),9.84
13,Cc1ccccc1C(=O)Oc1cccc2c(O)cccc12,14.6
14,CCc1nc(Nc2ccc3c(c2)OCO3)c2oc3ccccc3c2n1.Cl,12.2
15,O=C(CCNC(=O)c1ccc(Br)o1)NCc1ccccn1,1.3
16,Cn1cc(SCC(=O)NC2CCCCC2)c2ccccc21,9.81
17,COc1cccc(NC(=O)Nc2nnc(Cc3ccccc3F)s2)c1,16.4
18,Cc1cc(NC(=O)C(=O)c2cn(C)c3ccccc23)no1,2.75
19,CCOC(=O)CNC(=O)CSc1nnc(Cn2cnc3ccccc32)n1C,2.46
20,Cc1sc(NC(=O)c2ccco2)c(C(c2cccnc2)N2CCCC2)c1C (centres unmarked),15.9

row,SMILES,"hERG current change (%, negative = inhibition) at 1uM [%]"
1,CCOC(=O)CCNC(=O)N1CCCC(C(=O)c2cccc(OC(C)C)c2)C1 (centres unmarked),5.89
2,COc1ccc(C2CCCN2CC(O)COc2ccccc2C(C)C)cc1 (centres unmarked),1.71
3,CCOc1ccc(CN(C)C(=O)CNC(=O)c2ccc3ccccc3c2)cc1OC,3.85
4,O=C(CSC(=S)N1CCOCC1)c1cc2ccccc2oc1=O,1.52
5,O=C(O)CSCC(=O)N1CCCCC1,8.66
6,COc1ccc(OC)c(/C=N/NC2=NS(=O)(=O)c3ccccc32)c1,-5.31
7,OCC[C@@H]1C[C@@H](O)[C@H](O)[C@]2(CCc3ccccc3O2)O1,15.8
8,NC(=O)C1(N2CCCCC2)CCN(S(=O)(=O)c2cc(Cl)sc2Cl)CC1,-1.33
9,COc1ccc(CNS(=O)(=O)c2ccc(S(=O)(=O)N3CCCCC3)cc2)cc1,10.9
10,O=C(CSc1n[nH]c(=O)n1Cc1ccccc1)Nc1ccc(F)c(F)c1F,15.7
11,CCOc1ccc(NC(=O)CN(C)Cc2cc(=O)n3c(-c4ccccc4)csc3n2)cc1OCC,10.9
12,Cc1ccc(N2C(=O)C(CN3CCOCC3)C2c2ccccc2)cc1 (centres unmarked),-1.12
13,c1ccc(-c2nc(Sc3ncnc4c3cnn4-c3ccccc3)n[nH]2)cc1,3
14,COc1ccc(CNC(=O)c2cnc(C)cn2)c(OC)c1,-5.1
15,COc1ccc(NC(=O)NS(=O)(=O)c2ccc(C)cc2)cn1,13
16,CC1=C(C(=O)Nc2ccccc2)S(=O)(=O)CCO1,13.3
17,Cc1cc(N2CCOCC2)ccc1/C=C1\SC(=O)N(C(C)C)C1=O,-15.4
18,O=C1C=C(NC2CCCCC2)CCC1,-1.37
19,COc1ccc(OC)c(NC(=O)CCCC(=O)NC2CCCCC2)c1,10.6
20,COC(=O)CCCNc1ncccc1[N+](=O)[O-],14.8

row,SMILES,"hERG current change (%, negative = inhibition) at 1uM [%]"
1,Cc1nn(C)c(C)c1NC(=O)Nc1cccc(C(F)(F)F)c1,-9.49
2,NC(=O)NC(Cc1ccccc1)C(=O)Nc1ccc(S(N)(=O)=O)cc1 (centres unmarked),-5.7
3,CCN(CC)C(=O)CSc1nnc(CNc2ccc(F)cc2)n1Cc1ccco1,10.2
4,COc1ccc(-c2cc(C)no2)cc1S(=O)(=O)N(C)c1cccc(C)c1,-62.5
5,Oc1cccc(Nc2nc(O)c(/C=C3\C=Nc4ccccc43)s2)c1,12.8
6,COc1ccc(OCC(O)CN2CCN(c3ccccc3)CC2)cc1.Cl (centres unmarked),2.9
7,Nc1nnc(SCC(=O)NC2CCCCCC2)s1,15.7
8,Cc1c(CCO)c(=O)n(-c2ccccc2)n1S(=O)(=O)c1ccc(F)cc1,11.9
9,CCC(C(=O)Nc1ccc(C(C)C)cc1)c1ccccc1 (centres unmarked),9.2
10,CCNC(=S)/C(=C(/[O-])c1ccc([N+](=O)[O-])cc1)[n+]1ccccc1,15.3
11,CC1CCN(Cc2nnnn2CCCC(=O)NCCc2cnn(C)c2)CC1,16
12,O=C1Nc2cc3c(cc2C1=O)sc1ccccc13,19.4
13,Cc1cccc(CCNC(=O)CC2C(=O)NCCN2Cc2ccccc2C)n1 (centres unmarked),4.42
14,CC(=O)N1CCN(c2ccccc2NC(=O)Cc2ccc(Cl)cc2)CC1,-17.2
15,Cc1nn(-c2ccccc2)c(C)c1C(=O)OCC(=O)Nc1ccccc1,-0.52
16,Cc1ccc(S(=O)(=O)N2CCCC2)cc1C(=O)NCc1ccccn1,9.69
17,CC(Cc1ccccc1)NC(=O)CCCN1C(=O)c2ccccc2C1=O (centres unmarked),9.28
18,CNC(=O)NC(=O)COC(=O)c1ccccc1OCc1ccccc1,10.1
19,CCCCN(CCCC)C(=S)N/N=C/c1c(C)[nH]n(-c2ccccc2)c1=O,15.8
